Results on 84 variants are retold here after the RNAGym collection of RNA variant scans (doi:10.1073/pnas.2313332121).

This sample is rich in variants without activity. Bounds are passed on as bounds.

First the molecules themselves.
B1: TPR 5TU (parent)
chain: GGAUCUUCUCGAUCUAACAAAAAAGACAAAUCUGCCACAAAGCUUGAGAGCAUCUUCGGAUGCAGAGGCGGCAGCCUUCGGUGGCGCGAUAGCGCCAACGUUCUCAACUAUGACACGCAAAACGCGUGCUCCGUUGAAUGGAGUUUAUCAUG

The variants in this data set derive from B1. Nature of the data set: polymerase ribozyme fitness, log enrichment relative to wild type (log ratio); higher = more active; in vitro selection for triplet polymerase activity. Summed up:
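Genotype fitness is the logarithm of its enrichment divided by wild-type enrichment, using inverse-variance-weighted averages of replicates. That logarithm is base 2. Enrichment was measured by Illumina sequencing of input and output libraries from one triplicate in vitro selection round, with frozen incubation at −7 °C, on PCR-built, transcribed mutant libraries of each subunit of a heterodimeric triplet polymerase ribozyme, retaining genotypes with ≥10 input reads and ≥1 read per output.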
Take C54U C93G U127A: the “polymerase ribozyme fitness (log ratio)” value is at most -4.2.

As to C54A G58C G84U G94U C114G C116U, the “polymerase ribozyme fitness (log ratio)” value was at most -4.2.

In the case of C54A U101A, the “polymerase ribozyme fitness (log ratio)” value was -2.39.

In the case of U55A A64C, the “polymerase ribozyme fitness (log ratio)” value was at most -4.2.

Turning to U55A C79A G92A G100A U109C, the “polymerase ribozyme fitness (log ratio)” value is at most -4.2.

U55A C57G C85A C108A C114G G152A: the “polymerase ribozyme fitness (log ratio)” value is at most -4.2.

Turning to C54G C75U G94A, the “polymerase ribozyme fitness (log ratio)” value is -1.51.

As to C54U U77C G92A, the “polymerase ribozyme fitness (log ratio)” value was at most -4.2.

Regarding U55A C76A C85A A91C G92A G140A U145A, the “polymerase ribozyme fitness (log ratio)” value was at most -4.2.

For the variant U55A C93U C95U C96U, the “polymerase ribozyme fitness (log ratio)” value was -3.

In the case of U55A C96U U127C U134C, the “polymerase ribozyme fitness (log ratio)” value is -3.3.

Consider C54U C57G C87A G128A, for which the “polymerase ribozyme fitness (log ratio)” value was at most -4.2.

Turning to U55A C79G C85G U139G, the “polymerase ribozyme fitness (log ratio)” value was at most -4.2.

With C54U G86U G100A C132G U148G, the “polymerase ribozyme fitness (log ratio)” value was at most -4.2.

Regarding C54G G83C A97U A98U, the “polymerase ribozyme fitness (log ratio)” value was -2.8.

On to U55A C76A C96U C99G, for which the “polymerase ribozyme fitness (log ratio)” value is at most -4.2.

Regarding C54U C75G G88C C123A A137G, the “polymerase ribozyme fitness (log ratio)” value was at most -4.2.

As to C54U G59A G70C, the “polymerase ribozyme fitness (log ratio)” value is -2.48.

As to C54U G86C G112U, the “polymerase ribozyme fitness (log ratio)” value is at most -4.2.

As to U55A C93G G143A, the “polymerase ribozyme fitness (log ratio)” value is -3.93.

For C54G C79G C85U G117A G136U A150G, the “polymerase ribozyme fitness (log ratio)” value is at most -4.2.

For C54U G70C C93U C116U C125A A138U G141U, the “polymerase ribozyme fitness (log ratio)” value was at most -4.2.

Turning to C54G A89C C123G C131A, the “polymerase ribozyme fitness (log ratio)” value is at most -4.2.

For the variant C54G C76G A89U C93A A113G C116U, the “polymerase ribozyme fitness (log ratio)” value was at most -4.2.

Regarding C54U C99G G141U U151G, the “polymerase ribozyme fitness (log ratio)” value was at most -4.2.

For the variant U55A A115G G124U, the “polymerase ribozyme fitness (log ratio)” value is -0.932.

For the variant C54G C93G U104G A106U A137U A142C, the “polymerase ribozyme fitness (log ratio)” value is at most -4.2.

With C54A U109C, the “polymerase ribozyme fitness (log ratio)” value is at most -4.2.

C54G C96U A98G: the “polymerase ribozyme fitness (log ratio)” value is -1.19.

As to U55A C85A G133C, the “polymerase ribozyme fitness (log ratio)” value is -3.05.

For the variant U55A A64G G84A C93G A137G A142U, the “polymerase ribozyme fitness (log ratio)” value is at most -4.2.

For C54U C69G G140A, the “polymerase ribozyme fitness (log ratio)” value was at most -4.2.

In the case of C54U C72G C99A, the “polymerase ribozyme fitness (log ratio)” value was at most -4.2.

U55A A150C: the “polymerase ribozyme fitness (log ratio)” value was -3.6.

As for C54G A89U C95U A97C, the “polymerase ribozyme fitness (log ratio)” value was -2.48.

As to C54U C79G C93U A98U C99A C105G C116U A142C U144C, the “polymerase ribozyme fitness (log ratio)” value is at most -4.2.

Take C54A G70C G88A C93G U134A U146A: the “polymerase ribozyme fitness (log ratio)” value is at most -4.2.

As for C54G C85U G86A U111C, the “polymerase ribozyme fitness (log ratio)” value is at most -4.2.

Turning to U55A C87A, the “polymerase ribozyme fitness (log ratio)” value is at most -4.2.

As for U55A C69A C95G C96A, the “polymerase ribozyme fitness (log ratio)” value is at most -4.2.

On to U55A A60C G62A G81A C85U G133C, for which the “polymerase ribozyme fitness (log ratio)” value was at most -4.2.

C54A U56G U77G G86A G88C: the “polymerase ribozyme fitness (log ratio)” value was at most -4.2.

With C54G G88C A142C, the “polymerase ribozyme fitness (log ratio)” value was at most -4.2.

For the variant C54G G88C A142U, the “polymerase ribozyme fitness (log ratio)” value was at most -4.2.

Take C54U A91C G92U C105U G133U: the “polymerase ribozyme fitness (log ratio)” value was at most -4.2.

For the variant C54A G68C A91C C93U A122U, the “polymerase ribozyme fitness (log ratio)” value is at most -4.2.

As to C54U G70C A91U A97C, the “polymerase ribozyme fitness (log ratio)” value is at most -4.2.

With C54U G59U G74A, the “polymerase ribozyme fitness (log ratio)” value was -3.62.

As to C54U G71C C116U G136A U146C, the “polymerase ribozyme fitness (log ratio)” value was -3.51.

As to C54G U56A C87U C93A C132A, the “polymerase ribozyme fitness (log ratio)” value was at most -4.2.

Turning to U55A C95U C105A C108G, the “polymerase ribozyme fitness (log ratio)” value was at most -4.2.

Take C54U U77G A121C: the “polymerase ribozyme fitness (log ratio)” value was at most -4.2.

Regarding C54U C57G G74A C93U, the “polymerase ribozyme fitness (log ratio)” value was at most -4.2.

With C54A U144A, the “polymerase ribozyme fitness (log ratio)” value was -1.74.

Take C54A U144G: the “polymerase ribozyme fitness (log ratio)” value is -0.801.

With U55A A121U, the “polymerase ribozyme fitness (log ratio)” value is -0.372.

As to U55A A121C, the “polymerase ribozyme fitness (log ratio)” value is -0.369.

Turning to C54A U55A A60U, the “polymerase ribozyme fitness (log ratio)” value is -1.37.

As for U55A A91G U102G A150C, the “polymerase ribozyme fitness (log ratio)” value was at most -4.2.

Take C54A U55G G83A U102C C108G G126A: the “polymerase ribozyme fitness (log ratio)” value was at most -4.2.

Consider U55A C57G G88C U90G C116U U127G, for which the “polymerase ribozyme fitness (log ratio)” value is at most -4.2.

Regarding C54U A66G G83C A98G, the “polymerase ribozyme fitness (log ratio)” value is at most -4.2.

C54A G58C C95G C108A: the “polymerase ribozyme fitness (log ratio)” value was at most -4.2.

In the case of C54U G84C G100C C108A A113U G141U, the “polymerase ribozyme fitness (log ratio)” value is at most -4.2.

As for C54U G81A C95U, the “polymerase ribozyme fitness (log ratio)” value was -0.559.

Turning to C54U G58U A64C C85A A89C C114U, the “polymerase ribozyme fitness (log ratio)” value was at most -4.2.

With C54A U90G C114G U127G U145C, the “polymerase ribozyme fitness (log ratio)” value is at most -4.2.

For the variant U55A C69G U146A, the “polymerase ribozyme fitness (log ratio)” value was -3.62.

Take C54A G65C C93G: the “polymerase ribozyme fitness (log ratio)” value was at most -4.2.

For the variant C54G G83A A91U, the “polymerase ribozyme fitness (log ratio)” value was at most -4.2.

For the variant C54U U78A C85G C118U A120C U148G A150U, the “polymerase ribozyme fitness (log ratio)” value was at most -4.2.

For U55A C57A, the “polymerase ribozyme fitness (log ratio)” value came to 0.142.

U55A A73C C87U G92A: the “polymerase ribozyme fitness (log ratio)” value is -2.04.

On to C54G A91C U101G C116U A137C G143U U145A, for which the “polymerase ribozyme fitness (log ratio)” value is at most -4.2.

Turning to C54G G84U C85G U134G, the “polymerase ribozyme fitness (log ratio)” value is at most -4.2.

Turning to C54U C85G G94U G124A A137U, the “polymerase ribozyme fitness (log ratio)” value was at most -4.2.

For the variant U55A C76G G100C U109A A120G, the “polymerase ribozyme fitness (log ratio)” value was at most -4.2.

With C54G U55A C108G A122U, the “polymerase ribozyme fitness (log ratio)” value was at most -4.2.

In the case of C54A U56A, the “polymerase ribozyme fitness (log ratio)” value was -1.31.

As to C54U U55A A91U C105G, the “polymerase ribozyme fitness (log ratio)” value is at most -4.2.

For the variant U55A C72U G83A, the “polymerase ribozyme fitness (log ratio)” value was -0.82.

On to U55A A64C G84A G92U U145G, for which the “polymerase ribozyme fitness (log ratio)” value was at most -4.2.

Take C54G A147C: the “polymerase ribozyme fitness (log ratio)” value is -1.47.

With C54G C87U U101G A121C C149G, the “polymerase ribozyme fitness (log ratio)” value was at most -4.2.
